# Test results from the BET-seq Pho4 binding data (Le et al. 2018).
# The list shows a part of the results. Values were computed here from the reads of four pooled replicates and scatter widely.
# Target: T1, Pho4 (S. cerevisiae) (UniProt P07270)
# T1 sequence: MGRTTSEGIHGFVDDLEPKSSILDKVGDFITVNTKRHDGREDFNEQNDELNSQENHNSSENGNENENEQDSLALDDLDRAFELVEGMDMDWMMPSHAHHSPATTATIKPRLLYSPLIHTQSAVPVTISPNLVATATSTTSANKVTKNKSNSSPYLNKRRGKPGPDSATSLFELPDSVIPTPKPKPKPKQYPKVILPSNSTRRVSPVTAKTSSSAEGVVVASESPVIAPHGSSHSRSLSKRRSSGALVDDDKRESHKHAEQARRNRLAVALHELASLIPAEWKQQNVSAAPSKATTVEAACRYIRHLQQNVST
# Assay: relative binding free energy (BET-seq); higher = weaker binding
# Settings: reference: library average
row,Sequence,relative binding free energy
1,TCGTTCACGTGGAGGG,0.24 kcal/mol
2,TATGACACGTGTCGTA,0.03 kcal/mol
3,AAAGGCACGTGACGTT,0.03 kcal/mol
4,TTTTGCACGTGGTTGC,0.01 kcal/mol
5,TTTAGCACGTGTACTA,0.07 kcal/mol
6,TCAGGCACGTGTGTCG,-0.13 kcal/mol
7,GGATTCACGTGTCAGA,0.39 kcal/mol
8,GCTGGCACGTGTTGGT,-0.11 kcal/mol
9,GGTGACACGTGTTAAT,0.02 kcal/mol
10,GGTGACACGTGTTCTG,-0.1 kcal/mol
11,TATCTCACGTGGTGAT,0.21 kcal/mol
12,TTTGGCACGTGTTTTA,-0.05 kcal/mol
13,ACGCTCACGTGGTGGG,0.08 kcal/mol
14,GGGAGCACGTGCTGGA,-0.14 kcal/mol
15,TTTTACACGTGGTTGT,0.11 kcal/mol
16,ATCTGCACGTGGGTAA,-0.04 kcal/mol
17,TTTTTCACGTGCATAT,0.16 kcal/mol
18,TTATGCACGTGATCTG,-0.02 kcal/mol
19,TCTGGCACGTGGAAGG,0.09 kcal/mol
20,GGCGGCACGTGAAATG,0.28 kcal/mol
21,ATGAGCACGTGAGAGA,0.26 kcal/mol
22,GGGGACACGTGACAGG,0.18 kcal/mol
23,TATGTCACGTGATTGA,0.2 kcal/mol

row,Sequence,relative binding free energy
1,TAGGGCACGTGATTGC,-0.02 kcal/mol
2,CGATGCACGTGTTGGT,-0.13 kcal/mol
3,CGAGGCACGTGGTTGG,-0.07 kcal/mol
4,GGTTGCACGTGCGTCT,-0.04 kcal/mol
5,CATTACACGTGGGGGC,-0.05 kcal/mol
6,GGCTGCACGTGAGGGA,0.27 kcal/mol
7,TTGTGCACGTGCGTGT,-0.16 kcal/mol
8,TTTTGCACGTGTTGGG,0.14 kcal/mol
9,AGAATCACGTGTTGGA,0.27 kcal/mol
10,GGGGTCACGTGGGGTA,0.02 kcal/mol
11,GTATTCACGTGTATTA,0.14 kcal/mol
12,ATGGACACGTGCTGTT,-0.17 kcal/mol
13,GGGTTCACGTGTTGGC,0.27 kcal/mol
14,GATTACACGTGTGCGG,0.15 kcal/mol
15,TGAGTCACGTGCGCGT,0.18 kcal/mol
16,TGTTGCACGTGAAGGT,0.17 kcal/mol
17,AGGTACACGTGCATGG,-0.07 kcal/mol
18,TGTATCACGTGCGTTA,-0.01 kcal/mol
19,GCTTTCACGTGGGTCT,0.2 kcal/mol
20,AAGTTCACGTGGAGAG,0.29 kcal/mol
21,TTTAACACGTGGGGGC,-0.07 kcal/mol
22,TGGACCACGTGGGACG,-0.03 kcal/mol
23,TCTCGCACGTGGGGTT,-0.22 kcal/mol

row,Sequence,relative binding free energy
1,TAAAACACGTGTGGAG,0.18 kcal/mol
2,CATGGCACGTGTAGGG,-0.14 kcal/mol
3,GTAATCACGTGTAGGA,0.23 kcal/mol
4,TGAAGCACGTGGTGCG,-0.2 kcal/mol
5,CTATTCACGTGTTTGG,0.25 kcal/mol
6,AGCCTCACGTGGGGTA,0.11 kcal/mol
7,TTCCTCACGTGAAGGG,0.37 kcal/mol
8,GGGATCACGTGTTTTA,0.26 kcal/mol
9,AGGTGCACGTGTTGAC,-0.04 kcal/mol
10,GACGTCACGTGTGGCG,0.14 kcal/mol
11,TGGAGCACGTGAGGGA,0.19 kcal/mol
12,TCGGTCACGTGCAGTG,0.02 kcal/mol
13,CGATGCACGTGTGGTG,-0.03 kcal/mol
14,CGGAGCACGTGGATTT,0.08 kcal/mol
15,TGAGACACGTGAAGGT,0.15 kcal/mol
16,AGGATCACGTGTAGTA,0.13 kcal/mol
17,GTGAGCACGTGAGATG,0.32 kcal/mol
18,ATTCACACGTGGTAGG,-0.16 kcal/mol
19,TTGAACACGTGAATAG,0.29 kcal/mol
20,TAGGACACGTGTTGTC,0.15 kcal/mol
21,AGAGGCACGTGTGCTG,-0.08 kcal/mol
22,TCGGGCACGTGTAAGT,0.02 kcal/mol
23,GGAATCACGTGTGGTA,0.15 kcal/mol

row,Sequence,relative binding free energy
1,ATGATCACGTGTGGCT,0.22 kcal/mol
2,GGGCGCACGTGGGCGA,-0.36 kcal/mol
3,AGGGACACGTGAGCTG,0.23 kcal/mol
4,TTGTTCACGTGAGTAT,0.39 kcal/mol
5,AGTTTCACGTGAGTCG,0.34 kcal/mol
6,GTTCTCACGTGATGGG,0.28 kcal/mol
7,GCTTGCACGTGTGTTT,0.06 kcal/mol
8,AGTCTCACGTGGGCGG,0.13 kcal/mol
9,TTCTTCACGTGGTTAT,0.15 kcal/mol
10,CATCGCACGTGGGTTT,-0.06 kcal/mol
11,TTGAGCACGTGGTGTA,-0.19 kcal/mol
12,GGTCACACGTGAAGGT,0.31 kcal/mol
13,ACGTGCACGTGAGTTT,-0.04 kcal/mol
14,GTTGTCACGTGTATCA,0.18 kcal/mol
15,GGAGTCACGTGCAGCG,0.21 kcal/mol
16,TGCGGCACGTGTGGGC,-0.01 kcal/mol
17,TTTGGCACGTGGGTAA,-0.23 kcal/mol
18,GGAGGCACGTGAGTGT,0.22 kcal/mol
19,TTTCGCACGTGGAGGC,0.01 kcal/mol
20,GTGTGCACGTGCGAGA,-0.04 kcal/mol
21,TTGAACACGTGGAATG,0.05 kcal/mol
22,TGGGTCACGTGGAGTG,0.16 kcal/mol
23,TGGTGCACGTGCGAGA,-0.02 kcal/mol

row,Sequence,relative binding free energy
1,CGGTACACGTGGGTTA,0.01 kcal/mol
2,GCAGGCACGTGGGGTG,-0.18 kcal/mol
3,GATTTCACGTGGTCGA,0.25 kcal/mol
4,GGTGCCACGTGGTGGC,-0.06 kcal/mol
5,TTTTCCACGTGGGTAA,0.03 kcal/mol
6,TTAGTCACGTGTGGTA,0.17 kcal/mol
7,GGCAACACGTGATGGT,0.18 kcal/mol
8,TGTCTCACGTGTTATT,0.2 kcal/mol
9,GTTCACACGTGTGGTT,0.18 kcal/mol
10,AGATTCACGTGAAGGT,0.35 kcal/mol
11,GTACGCACGTGGAAGG,0 kcal/mol
12,ATCGGCACGTGATCGT,0.04 kcal/mol
13,ATCTTCACGTGATGAG,0.34 kcal/mol
14,ATTGTCACGTGCAGAG,-0.01 kcal/mol
15,ATAGGCACGTGTTTAG,-0.16 kcal/mol
16,GAGGTCACGTGCGGGG,0 kcal/mol
17,TAGTGCACGTGCAATT,0.11 kcal/mol
18,GTCTTCACGTGGTGGG,0.3 kcal/mol
19,GTAAGCACGTGAGGTG,0.28 kcal/mol
20,GTAGGCACGTGTAATC,0.2 kcal/mol
21,TACTACACGTGGTTTT,0.01 kcal/mol
22,ATTTTCACGTGCAAGG,0.28 kcal/mol
23,TTTATCACGTGCGGCG,0.26 kcal/mol
